# Test results: the supplement of paper PMC8728848
# Some of the results follow.
# B1: Siglec-7-SA-PE-180 (Homo sapiens), Q9Y286 (protein)
# chain: MLLLLLLPLLWGRERVEGQKSNRKDYSLTMQSSVTVQEGMCVHVRCSFSYPVDSQTDSDPVHGYWFRAGNDISWKAPVATNNPAWAVQEETRDRFHLLGDPQTKNCTLSIRDARMSDAGRYFFRMEKGNIKWNYKYDQLSVNVTALTHRPNILIPGTLESGCFQNLTCSVPWACEQGTPPMISWMGTSVSPLHPSTTRSSVLTLIPQPQHHGTSLTCQVTLPGAGVTTNRTIQLNVSYPPQNLTVTVFQGEGTASTALGNSSSLSVLEGQSLRLVCAVDSNPPARLSWTWRSLTLYPSQPSNPLVLELQVHLGDEGEFTCRAQNSLGSQHVSLNLSLQQEYTGKMRPVSGVLLGAVGGAGATALVFLSFCVIFIVVRSCRKKSARPAADVGDIGMKDANTIRGSASQGNLTESWADDNPRHHGLAAHSSGEEREIQYAPLSFHKGEPQDLSGQEATNNEYSEIKIPK
# How the values were obtained:
# Experiment in all cases: glycan array binding signal (z-score within array); higher = stronger binding
# Conditions in all cases: glycan notation: IUPAC condensed, linker removed
# [1] = target: Gal(b1-3)GlcNAc(b1-3)Gal(b1-3)GlcNAc
# Outline: (§1)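 Arrays were curated from the Consortium for Functional Glycomics database, 3228 in total, and kept only where the protein sequence was available. Binding is expressed as a within-array Z-score. This score was averaged across arrays of the same protein sequence at different concentrations or buffers and across linkers, and negative values can be read as non-binding.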
# [2] = target: Gal(b1-3)GlcNAc(b1-3)Gal(b1-4)Glc
# Outline: as §1
# [3] = target: Gal(b1-3)GlcNAc(b1-3)Gal(b1-4)GlcNAc
# Outline: as §1
# [4] = target: Gal(b1-3)GlcNAc(b1-3)Gal(b1-4)GlcNAc(b1-2)Man(a1-3)[Gal(b1-3)GlcNAc(b1-3)Gal(b1-4)GlcNAc(b1-2)Man(a1-6)]Man(b1-4)GlcNAc(b1-4)GlcNAc
# Outline: as §1
# [5] = target: Gal(b1-3)GlcNAc(b1-3)Gal(b1-4)GlcNAc(b1-2)[Gal(b1-3)GlcNAc(b1-3)Gal(b1-4)GlcNAc(b1-6)]Man(a1-6)[Gal(b1-3)GlcNAc(b1-3)Gal(b1-4)GlcNAc(b1-2)Man(a1-3)]Man(b1-4)GlcNAc(b1-4)[Fuc(a1-6)]GlcNAc
# Outline: as §1
# [6] = target: Gal(b1-3)GlcNAc(b1-3)Gal(b1-4)GlcNAc(b1-3)Gal(b1-4)GlcNAc(b1-2)[Gal(b1-3)GlcNAc(b1-3)Gal(b1-4)GlcNAc(b1-3)Gal(b1-4)GlcNAc(b1-6)]Man(a1-6)[Gal(b1-3)GlcNAc(b1-3)Gal(b1-4)GlcNAc(b1-3)Gal(b1-4)GlcNAc(b1-2)Man(a1-3)]Man(b1-4)GlcNAc(b1-4)[Fuc(a1-6)]GlcNAc
# Outline: as §1
# [7] = target: Gal(b1-3)GlcNAc(b1-3)Gal(b1-4)GlcNAc(b1-6)[Gal(b1-3)GlcNAc(b1-3)]Gal(b1-4)Glc
# Outline: as §1
# [8] = target: Gal(b1-3)GlcNAc(b1-3)Gal(b1-4)[Fuc(a1-3)]GlcNAc
# Outline: as §1
# [9] = target: Gal(b1-3)GlcNAc(b1-3)Gal(b1-4)[Fuc(a1-3)]GlcNAc(b1-6)[Gal(b1-3)GlcNAc(b1-3)]Gal(b1-4)Glc
# Outline: as §1
# [10] = target: Gal(b1-3)GlcNAc(b1-3)GalNAc
# Outline: as §1
# [11] = target: Gal(b1-3)GlcNAc(b1-6)Gal(b1-4)GlcNAc
# Outline: as §1
# [12] = target: Gal(b1-3)GlcNAc(b1-6)GalNAc
# Outline: as §1
# [13] = target: Gal(b1-3)GlcNAc(b1-6)[Gal(b1-3)]GalNAc
# Outline: as §1
# [14] = target: Gal(b1-3)GlcNAc6S
# Outline: as §1
# [15] = target: Gal(b1-3)[Fuc(a1-4)]GlcNAc
# Outline: as §1
# [16] = target: Gal(b1-3)[Fuc(a1-4)]GlcNAc(b1-2)Man
# Outline: as §1
# [17] = target: Gal(b1-3)[Fuc(a1-4)]GlcNAc(b1-2)Man(a1-3)[Gal(b1-3)[Fuc(a1-4)]GlcNAc(b1-2)Man(a1-6)]Man(b1-4)GlcNAc(b1-4)[Fuc(a1-6)]GlcNAc
# Outline: as §1
# [18] = target: Gal(b1-3)[Fuc(a1-4)]GlcNAc(b1-3)Gal(b1-3)[Fuc(a1-4)]GlcNAc
# Outline: as §1
# [19] = target: Gal(b1-3)[Fuc(a1-4)]GlcNAc(b1-3)Gal(b1-4)GlcNAc
# Outline: as §1
# [20] = target: Gal(b1-3)[Fuc(a1-4)]GlcNAc(b1-3)Gal(b1-4)[Fuc(a1-3)]GlcNAc
# Outline: as §1
# [21] = target: Gal(b1-3)[Fuc(a1-4)]GlcNAc(b1-6)GalNAc
# Outline: as §1
# [22] = target: Gal(b1-3)[GlcNAc(b1-6)]GalNAc
# Outline: as §1
# [23] = target: Gal(b1-3)[Neu5Ac(a2-6)]GalNAc
# Outline: as §1
# [24] = target: Gal(b1-3)[Neu5Ac(a2-6)]GlcNAc(b1-4)Gal(b1-4)Glc
# Outline: as §1
# [25] = target: Gal(b1-3)[Neu5Ac(a2-6)]GlcNAc(b1-6)Gal(b1-4)Glc
# Outline: as §1
# [26] = target: Gal(b1-3)[Neu5Ac(b2-6)]GalNAc
# Outline: as §1
# [27] = target: Gal(b1-4)Gal
# Outline: as §1
# [28] = target: Gal(b1-4)GalNAc(a1-3)[Fuc(a1-2)]Gal(b1-4)GlcNAc
# Outline: as §1
# [29] = target: Gal(b1-4)GalNAc(b1-3)[Fuc(a1-2)]Gal(b1-4)GlcNAc
# Outline: as §1
# [30] = target: Gal(b1-4)Glc
# Outline: as §1
# [31] = target: Gal(b1-4)Glc6S
# Outline: as §1
# [32] = target: Gal(b1-4)GlcNAc
# Outline: as §1
# [33] = target: Gal(b1-4)GlcNAc(a1-6)Gal(b1-4)GlcNAc
# Outline: as §1
# [34] = target: Gal(b1-4)GlcNAc(b1-2)Man
# Outline: as §1
# [35] = target: Gal(b1-4)GlcNAc(b1-2)Man(a1-3)Man(b1-4)GlcNAc(b1-4)GlcNAc
# Outline: as §1
# [36] = target: Gal(b1-4)GlcNAc(b1-2)Man(a1-3)[Gal(b1-4)GlcNAc(b1-2)Man(a1-6)]Man(b1-4)GlcNAc(b1-4)GlcNAc
# Outline: as §1
# [37] = target: Gal(b1-4)GlcNAc(b1-2)Man(a1-3)[Gal(b1-4)GlcNAc(b1-2)Man(a1-6)]Man(b1-4)GlcNAc(b1-4)[Fuc(a1-6)]GlcNAc
# Outline: as §1
binder,measurement,setting,value
B1,glycan array binding signal (z-score),[1],-0.395
same,glycan array binding signal (z-score),[2],-0.479
same,glycan array binding signal (z-score),[3],0.024
same,glycan array binding signal (z-score),[4],-0.12
same,glycan array binding signal (z-score),[5],0.215
same,glycan array binding signal (z-score),[6],0.606
same,glycan array binding signal (z-score),[7],-0.201
same,glycan array binding signal (z-score),[8],-0.189
same,glycan array binding signal (z-score),[9],-0.201
same,glycan array binding signal (z-score),[10],-0.304
same,glycan array binding signal (z-score),[11],-0.207
same,glycan array binding signal (z-score),[12],-0.411
same,glycan array binding signal (z-score),[13],0.341
same,glycan array binding signal (z-score),[14],0.32
same,glycan array binding signal (z-score),[15],-0.102
same,glycan array binding signal (z-score),[16],0.158
same,glycan array binding signal (z-score),[17],-0.143
same,glycan array binding signal (z-score),[18],-0.372
same,glycan array binding signal (z-score),[19],-0.196
same,glycan array binding signal (z-score),[20],-0.14
same,glycan array binding signal (z-score),[21],-0.078
same,glycan array binding signal (z-score),[22],-0.225
same,glycan array binding signal (z-score),[23],0.453
same,glycan array binding signal (z-score),[24],-0.535
same,glycan array binding signal (z-score),[25],0.567
same,glycan array binding signal (z-score),[26],-0.277
same,glycan array binding signal (z-score),[27],-0.091
same,glycan array binding signal (z-score),[28],-0.318
same,glycan array binding signal (z-score),[29],-0.418
same,glycan array binding signal (z-score),[30],-0.184
same,glycan array binding signal (z-score),[31],0.009
same,glycan array binding signal (z-score),[32],-0.116
same,glycan array binding signal (z-score),[33],-0.267
same,glycan array binding signal (z-score),[34],0.353
same,glycan array binding signal (z-score),[35],-0.128
same,glycan array binding signal (z-score),[36],-0.065
same,glycan array binding signal (z-score),[37],-0.374
